Measured values taken from publication PMC3821653.
No constants are given. Whether binding was seen depends on the method and setting. For some assays here: Binding seen in cells or lysates may run through a third protein. Some binding calls cover weakened binding; strength is not graded here. For some assays here: Sequences can lack the tags named with a protein. Each block holds one molecule with its values, some of them ahead of it.

Sequences of proteins named here, by UniProt entry; tags and fusion partners are left off. A change or cut given only in a name is not applied to a line headed by its entry.
UniProt O43196: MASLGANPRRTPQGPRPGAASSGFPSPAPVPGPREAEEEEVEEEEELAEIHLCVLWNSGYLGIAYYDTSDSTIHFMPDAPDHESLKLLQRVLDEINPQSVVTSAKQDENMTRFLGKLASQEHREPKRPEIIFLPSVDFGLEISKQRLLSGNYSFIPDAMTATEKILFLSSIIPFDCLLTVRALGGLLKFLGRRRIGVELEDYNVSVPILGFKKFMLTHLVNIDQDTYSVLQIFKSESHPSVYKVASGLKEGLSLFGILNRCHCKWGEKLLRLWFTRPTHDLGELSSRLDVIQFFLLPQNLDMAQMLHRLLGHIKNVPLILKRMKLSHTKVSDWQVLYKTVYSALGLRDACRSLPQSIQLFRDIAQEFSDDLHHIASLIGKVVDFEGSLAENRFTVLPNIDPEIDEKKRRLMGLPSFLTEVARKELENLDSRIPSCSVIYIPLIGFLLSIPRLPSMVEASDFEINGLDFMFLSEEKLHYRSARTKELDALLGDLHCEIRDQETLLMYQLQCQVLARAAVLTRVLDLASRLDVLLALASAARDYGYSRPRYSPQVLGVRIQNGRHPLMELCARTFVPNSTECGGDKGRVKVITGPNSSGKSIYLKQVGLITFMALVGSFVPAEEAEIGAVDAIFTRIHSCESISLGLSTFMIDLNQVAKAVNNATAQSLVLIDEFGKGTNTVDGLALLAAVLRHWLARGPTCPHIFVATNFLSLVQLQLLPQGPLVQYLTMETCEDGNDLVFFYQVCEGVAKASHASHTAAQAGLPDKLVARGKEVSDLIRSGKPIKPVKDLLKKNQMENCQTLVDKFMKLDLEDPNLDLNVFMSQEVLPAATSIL
UniProt Q13227: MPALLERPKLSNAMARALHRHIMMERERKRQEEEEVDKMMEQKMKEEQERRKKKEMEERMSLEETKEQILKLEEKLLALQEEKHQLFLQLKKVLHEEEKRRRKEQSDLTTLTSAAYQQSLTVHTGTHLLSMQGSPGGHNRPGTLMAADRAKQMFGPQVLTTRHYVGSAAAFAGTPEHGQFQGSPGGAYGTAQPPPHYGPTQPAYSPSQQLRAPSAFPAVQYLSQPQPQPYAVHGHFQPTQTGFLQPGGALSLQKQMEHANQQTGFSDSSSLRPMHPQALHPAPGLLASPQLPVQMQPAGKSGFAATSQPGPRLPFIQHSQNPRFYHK
UniProt Q92993: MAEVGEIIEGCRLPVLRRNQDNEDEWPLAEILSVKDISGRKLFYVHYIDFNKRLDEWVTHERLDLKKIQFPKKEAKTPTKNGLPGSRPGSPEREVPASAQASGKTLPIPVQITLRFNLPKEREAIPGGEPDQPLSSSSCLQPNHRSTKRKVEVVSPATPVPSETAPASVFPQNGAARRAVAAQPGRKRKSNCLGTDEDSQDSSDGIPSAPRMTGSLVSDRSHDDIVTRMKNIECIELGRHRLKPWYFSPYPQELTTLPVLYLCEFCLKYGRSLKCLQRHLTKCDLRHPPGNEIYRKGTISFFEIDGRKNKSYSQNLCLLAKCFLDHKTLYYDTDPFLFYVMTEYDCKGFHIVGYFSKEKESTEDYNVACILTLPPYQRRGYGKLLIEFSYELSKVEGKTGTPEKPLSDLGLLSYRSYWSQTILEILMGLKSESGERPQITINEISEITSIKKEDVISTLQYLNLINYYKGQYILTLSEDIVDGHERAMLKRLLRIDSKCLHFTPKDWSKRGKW
UniProt O15379: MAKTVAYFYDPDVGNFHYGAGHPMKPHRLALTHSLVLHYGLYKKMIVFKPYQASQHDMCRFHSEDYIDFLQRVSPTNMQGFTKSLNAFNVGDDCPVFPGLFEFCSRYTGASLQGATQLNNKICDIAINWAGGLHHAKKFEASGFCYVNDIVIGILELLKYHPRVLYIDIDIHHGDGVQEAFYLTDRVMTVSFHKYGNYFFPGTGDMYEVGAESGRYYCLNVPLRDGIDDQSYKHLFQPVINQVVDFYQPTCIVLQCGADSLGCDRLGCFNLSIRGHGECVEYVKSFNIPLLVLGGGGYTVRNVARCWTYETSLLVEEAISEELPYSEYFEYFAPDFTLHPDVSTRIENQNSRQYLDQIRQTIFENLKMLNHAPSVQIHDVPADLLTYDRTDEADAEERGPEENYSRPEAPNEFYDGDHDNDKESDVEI

What was measured:
[1] = molecular target: hMSH4-hMSH5 heterocomplex (BD-hMSH4 with HA-hMSH5) (human) (UniProt O15457+O43196); assay: two-hybrid; yeast three-hybrid: BD-fusion with or without a 'native' HA-tagged third protein (pBridge) and AD-fusion (pGADT7) in strain AH109; HIS3 and ADE2 reporters, growth on SD/-Ade-Leu-His-Trp
[2] = molecular target: hMSH4-hMSH5 heterocomplex (BD-hMSH5 with HA-hMSH4) (human) (UniProt O43196+O15457); assay: as above
GST-hMSH4 (human) = molecular target: T1, GST-hMSH4 (human) (UniProt O15457); assay: pull-down; GST pull-down from soluble lysates of BL21(DE3)-RIL cells co-expressing the two proteins; GST fusion captured on glutathione-Sepharose 4B beads; Western blot
T1 sequence: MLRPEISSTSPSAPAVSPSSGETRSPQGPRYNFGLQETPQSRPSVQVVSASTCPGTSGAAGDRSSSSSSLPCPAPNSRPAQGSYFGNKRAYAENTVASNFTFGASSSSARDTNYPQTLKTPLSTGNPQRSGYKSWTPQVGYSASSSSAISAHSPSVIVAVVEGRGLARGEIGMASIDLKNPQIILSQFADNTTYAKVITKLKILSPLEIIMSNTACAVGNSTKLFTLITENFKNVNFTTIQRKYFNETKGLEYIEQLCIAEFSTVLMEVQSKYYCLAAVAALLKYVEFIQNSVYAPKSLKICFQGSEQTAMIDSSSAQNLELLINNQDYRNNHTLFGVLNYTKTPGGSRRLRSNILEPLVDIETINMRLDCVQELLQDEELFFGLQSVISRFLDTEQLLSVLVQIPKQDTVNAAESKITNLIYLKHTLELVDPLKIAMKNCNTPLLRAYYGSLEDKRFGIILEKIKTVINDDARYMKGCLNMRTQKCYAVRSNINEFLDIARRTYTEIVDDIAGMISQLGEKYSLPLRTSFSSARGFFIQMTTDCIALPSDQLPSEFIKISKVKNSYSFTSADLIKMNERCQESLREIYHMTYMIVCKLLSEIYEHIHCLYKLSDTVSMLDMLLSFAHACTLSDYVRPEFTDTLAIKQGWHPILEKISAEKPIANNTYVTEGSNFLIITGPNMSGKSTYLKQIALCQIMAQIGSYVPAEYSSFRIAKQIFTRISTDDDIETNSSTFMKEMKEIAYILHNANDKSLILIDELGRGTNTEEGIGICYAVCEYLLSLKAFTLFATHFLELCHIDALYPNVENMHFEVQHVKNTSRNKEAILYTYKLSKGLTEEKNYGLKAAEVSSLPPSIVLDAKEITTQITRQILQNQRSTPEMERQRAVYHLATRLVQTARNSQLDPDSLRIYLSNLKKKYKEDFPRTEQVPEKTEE

GST-hMof (human) = molecular target: T2, GST-hMof (human) (UniProt Q9H7Z6); assay: as above
T2 sequence: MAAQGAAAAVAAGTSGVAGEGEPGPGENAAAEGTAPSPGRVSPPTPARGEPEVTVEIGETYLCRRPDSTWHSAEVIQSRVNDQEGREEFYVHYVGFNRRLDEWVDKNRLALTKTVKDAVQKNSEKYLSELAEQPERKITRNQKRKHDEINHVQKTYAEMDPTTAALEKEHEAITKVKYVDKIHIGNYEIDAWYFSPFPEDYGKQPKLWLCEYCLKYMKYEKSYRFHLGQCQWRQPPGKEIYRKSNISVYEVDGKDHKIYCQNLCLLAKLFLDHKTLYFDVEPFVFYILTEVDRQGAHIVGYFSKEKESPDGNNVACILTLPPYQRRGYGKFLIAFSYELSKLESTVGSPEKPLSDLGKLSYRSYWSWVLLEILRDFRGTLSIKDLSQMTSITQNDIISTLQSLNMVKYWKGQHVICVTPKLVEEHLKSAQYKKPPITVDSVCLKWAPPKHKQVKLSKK

Flag-hMof (human) [3] = molecular target: T3, Flag-hMof (human) (UniProt Q9H7Z6); assay: co-IP; 293T cells transfected with Myc-hMSH4 and Flag-hMof, not irradiated; IP with anti-Flag antibody, Western blot for hMSH4
T3 sequence: T2 sequence

Flag-hMof (human) [4] = molecular target: T3, Flag-hMof (human); assay: co-IP; 293T cells transfected with Myc-hMSH4 and Flag-hMof, 10 Gy IR at 48 h post transfection, extracts 6 h post IR; IP with anti-Flag antibody, Western blot for hMSH4

- binding [1]: binds
- binding [2]: binds
Molecule: AD-GPS2 (from UniProt Q13227 1-327)

- binding (GST-hMSH4 (human)): no binding
Molecule: Flag-tagged hTip60 (from UniProt Q92993 1-513) (enzyme)

- binding [1]: binds
- binding [2]: no binding
Molecule: AD-HDAC3 (from UniProt O15379 1-428) (enzyme)

- binding (GST-hMof (human)): binds
B1: His6-hMSH4 (protein, UniProt O15457 1-936)
chain: T1 sequence

- binding (Flag-hMof (human) [4]): binds
B2: Myc-hMSH4 (protein, UniProt O15457 1-936)
chain: T1 sequence
- binding (Flag-hMof (human) [3]): no binding (condition: cells without IR treatment)
